In PubChem BioAssay AID624296 (National Center for Advancing Translational Sciences (NCATS), 2012):
The campaign covered roughly 350,000 compounds. About 9,900 (2.8%) were called active. Inconclusive results, whose numbers are uncertain, are shown with a selection of clear calls. Calls come from the whole dose curve; as a rule, active = well fitted activation curve with a large enough effect; inconclusive = small, poorly fitted or top-dose-only effect; inactive = no such curve, though single readings can be large or run the other way. No potency is given beside an inconclusive call; the fits are too rough.

Test: A quantitative high throughput screen for small molecules that induce DNA re-replication in MCF 10a normal breast cells. For activity, positive = re-replication: % of control where 0% means no effect. Note: nearly all actives have a fitted effect of over 50% in size.
Details: MCF 10A DNA re-replication, Hoechst nuclear intensity, 48 h; activity, positive = re-replication: at 46.1 µM (top of the series)
Potency is the fitted concentration of half-maximal effect; tags give direction and shape of the fitted curve.

| SMILES | activity, positive = re-replication | Potency |
| --- | --- | --- |
| CCOC(=O)/C(C#N)=N/Nc1ccccc1OC | inactive: 1.85% | – |
| Cc1cc(C)c2[nH]c(=O)c(CN(Cc3cccs3)C(=S)NCc3ccco3)cc2c1 | – | inconclusive [activator, single point] |
| N#C/C(=C/c1ccccc1)C(=O)NCc1ccccc1 | – | inconclusive [activator, partial curve, poor fit] |
| Cc1ccccc1C(=O)NCCCNC(=O)c1ccccn1 | inactive: 2.68% | – |
| CCCCn1nnnc1SCC(=O)NCc1ccccc1 | inactive: -0.792% | – |
| O=C(NC(=S)N1CCCc2ccccc21)c1ccc(Cl)cc1 | – | inconclusive [activator, single point] |
| COc1ccc(C(=O)Nc2ccc(OCC(=O)N3CCOCC3)cc2)c(OC)c1OC | – | inconclusive [activator, single point] |
| COc1ccccc1N1CCN(/N=C/c2cc(OC)c(OC)c(OC)c2)CC1 | inactive: -73.7% | – |
| O=C(Cc1cc2ccccc2o1)NCc1ccc(F)cc1 | – | active: 11.6 µM |
| Cc1cccn2c(=O)c3cc(C(=O)N4CCCC(C)C4)sc3nc12 (stereo not given) | – | inconclusive [activator, partial curve] |
| CCOc1cc(/C=N/NC(=S)Nc2ccccc2C(F)(F)F)ccc1OCC(=O)N1CCOCC1 | inactive: 14.4% | – |
| CCN(C[C@H]1N[C@@](C)(C(=O)OC)[C@H]2C(=O)N(Cc3ccccc3)C(=O)[C@@H]12)C(=O)C1CCCCC1 | inactive: -4.89% | – |
| COc1ccc(C(=O)Nc2cccc(-c3csc(C)n3)c2)cc1S(=O)(=O)N1CCCC1 | inactive: -4.68% | – |
| O=C(CCCCCN1C(=O)c2cccc3cccc(c23)C1=O)NCc1cccnc1 | – | inconclusive [activator, partial curve, poor fit] |
| O=C(CN1C(=O)c2cccc3cccc1c23)N1CCN(Cc2ccc3c(c2)OCO3)CC1 | – | inconclusive [activator, partial curve, poor fit] |
| CCc1ccc(-c2nc(CSCC(=O)NCCCN3CCCC3=O)c(C)o2)cc1 | inactive: 18% | – |
| Cc1cc(NCCCN)nc(-c2ccccc2O)n1 | – | inconclusive [activator, full curve, poor fit] |
| CC1CCc2nc(NC(=O)CSc3nc4ccccc4o3)sc2C1 (stereo not given) | – | inconclusive [activator, single point] |
| CCOc1ccc(NC(=O)c2nn(C)c(C(=O)Nc3ccc(OCC)cc3)c2[N+](=O)[O-])cc1 | – | inconclusive [activator, single point] |
| O=C(Nc1ccc(C(=O)N2CCOCC2)cc1)c1cc(-c2cccnc2)nc2ccc(Cl)cc12 | – | inconclusive [activator, single point] |
| Cc1ccc(NC(=O)CCC(=O)N/N=C/c2ccc(O)cc2O)cc1 | – | inconclusive [activator, single point] |
| Cc1cc(N2CCCC2)ccc1/C=C1\NC(=S)N(C)C1=O | inactive: 17% | – |
| CC(=O)Nc1ccc(NC2=C/C(=N/S(=O)(=O)c3cccs3)c3ccccc3C2=O)cc1 | – | active: 8.2 µM |

| SMILES | activity, positive = re-replication | Potency |
| --- | --- | --- |
| COc1ccc(CSc2nncn2N)cc1[N+](=O)[O-] | inactive: -3.77% | – |
| O=C(CCc1ccccc1)NCCC1=CCCCC1 | – | inconclusive [activator, partial curve, poor fit] |
| COC(=O)c1sc(-c2ccc(Cl)cc2)cc1NC(=O)/C=C/C(=O)O | – | inconclusive [activator, single point] |
| O=C1N[C@@H](c2ccccc2)COC(=O)[C@H](Cc2ccc(F)cc2)CC/C=C/C[C@@H]1CC(=O)N(CCO)Cc1ccccc1 | – | inconclusive [activator, single point] |
| Cc1ccc(S(=O)(=O)/N=C(/Nc2ccc([N+](=O)[O-])cc2)c2ccccc2)cc1 | – | inconclusive [activator, single point] |
| Clc1ccc2nc(CN3CCCCC3)cn2c1 | inactive: 14.8% | – |
| O=C1/C(=C\c2cc([N+](=O)[O-])ccc2O)SC(=S)N1Cc1ccc(Cl)cc1 | – | inconclusive [activator, partial curve, poor fit] |
| S=C(NCCCCNC(=S)NCc1ccccc1)NCc1ccccc1 | – | inconclusive [activator, single point] |
| O=C(OCc1ccc(COC(=O)c2ccc(O)cc2)cc1)c1ccc(O)cc1 | inactive: 14.1% | – |
| CCCOc1cccc(C(=O)NC(=S)Nc2ccc(N3CCN(C)CC3)cc2)c1 | inactive: -1.74% | – |
| C=C(Br)Cn1c(CCCC)nc2ccccc21 | – | inconclusive [activator, full curve, poor fit] |
| CC[C@@H]1C/C=C\Cc2ccccc2[C@@H](C(=O)C[C@H](O)CC(C)=O)OC1=O | – | inconclusive [activator, partial curve, poor fit] |
| O=S(=O)(Nc1cccc2ncccc12)c1cccs1 | – | active: 16.4 µM |
| Cc1ccc(-c2cc(C(=O)NCc3ccccn3)c3ccccc3n2)cc1 | – | inconclusive [activator, partial curve, poor fit] |
| N#Cc1c(-c2ccccc2)cc(-c2ccccc2)nc1SCCC(=O)O | – | inconclusive [activator, full curve] |
| CCNc1ccc(S(=O)(=O)C(F)(F)F)cc1NC(=O)C12CCC(CC1)C2 | inactive: 8.71% | – |
| O=C(COC(=O)/C=C/c1ccc(S(=O)(=O)N2CCOCC2)cc1)NCc1ccccc1 | – | inconclusive [activator, single point] |
| COc1ccc(NC(C)=O)cc1S(=O)(=O)N1CC=C(c2ccccc2)CC1 | – | inconclusive [activator, single point] |
| O=C(NC1CCCC1)c1cc2nc(-c3ccccc3)cc(-c3ccccc3)n2n1 | – | inconclusive [activator, single point] |
| CCN1C(=O)C(CC(=O)Nc2ccc(Cl)cc2)N(NC(=O)c2ccncc2)C1=S (stereo not given) | inactive: 9.42% | – |
| COc1cccc(C(=O)NC2CCCc3c2cnn3-c2cc(C)cc(C)c2)c1 (stereo not given) | – | inconclusive [activator, single point] |
| Cc1onc(-c2c(F)cccc2Cl)c1C(=O)OCC(=O)NC(c1ccccc1)c1ccccc1 | inactive: -0.316% | – |
